Experimental data as given in PMC4336329 (PLoS ONE, 2015).
About 14,000 (4.5%) of roughly 310,000 compounds showed an effect of 50% or more. Effects have a minus sign here. The list shows a part of the results.

Molecular target: human ether-à-go-go-related gene (hERG) potassium channel (human, UniProt Q12809)
Test: primary screen, population patch clamp on CHO cells stably expressing hERG
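Note: peak tail current of the secondary pulse compared with the same well before compound.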

Sequence of human ether-à-go-go-related gene (hERG) potassium channel (Q12809 whole entry, looked up): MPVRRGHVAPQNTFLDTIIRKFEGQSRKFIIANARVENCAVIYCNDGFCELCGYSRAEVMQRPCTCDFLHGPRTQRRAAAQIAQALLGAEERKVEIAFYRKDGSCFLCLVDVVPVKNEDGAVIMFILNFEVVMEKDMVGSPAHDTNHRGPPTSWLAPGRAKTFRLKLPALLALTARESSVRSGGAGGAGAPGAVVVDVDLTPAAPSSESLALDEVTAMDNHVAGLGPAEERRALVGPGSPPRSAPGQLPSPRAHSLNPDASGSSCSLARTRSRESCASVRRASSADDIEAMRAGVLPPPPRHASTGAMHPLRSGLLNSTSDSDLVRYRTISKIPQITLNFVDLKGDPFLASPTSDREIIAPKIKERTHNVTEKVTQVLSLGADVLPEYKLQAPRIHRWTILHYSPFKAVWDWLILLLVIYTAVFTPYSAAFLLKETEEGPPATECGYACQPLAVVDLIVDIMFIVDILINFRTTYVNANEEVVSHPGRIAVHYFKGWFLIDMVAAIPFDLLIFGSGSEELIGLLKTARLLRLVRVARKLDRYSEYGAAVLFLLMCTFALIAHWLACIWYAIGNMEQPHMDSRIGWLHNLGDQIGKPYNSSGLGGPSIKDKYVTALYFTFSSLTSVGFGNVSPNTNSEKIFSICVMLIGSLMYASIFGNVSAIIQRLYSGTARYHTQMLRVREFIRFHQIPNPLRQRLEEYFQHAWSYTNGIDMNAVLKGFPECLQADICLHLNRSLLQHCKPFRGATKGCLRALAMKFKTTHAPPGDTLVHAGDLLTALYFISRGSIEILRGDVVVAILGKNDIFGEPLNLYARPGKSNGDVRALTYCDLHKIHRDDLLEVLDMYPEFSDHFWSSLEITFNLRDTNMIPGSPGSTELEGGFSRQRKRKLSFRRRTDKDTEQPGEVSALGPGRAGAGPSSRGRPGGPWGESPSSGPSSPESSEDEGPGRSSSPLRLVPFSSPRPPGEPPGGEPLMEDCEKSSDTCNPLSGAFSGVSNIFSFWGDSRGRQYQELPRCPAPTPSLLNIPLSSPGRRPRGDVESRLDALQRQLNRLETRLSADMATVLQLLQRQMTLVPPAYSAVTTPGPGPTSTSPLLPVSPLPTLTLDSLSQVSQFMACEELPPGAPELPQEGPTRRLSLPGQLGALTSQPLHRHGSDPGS

Structure (SMILES)	hERG current change (%, negative = inhibition) at 10uM
CC(NC(=O)CSc1nnc(CC(=O)Nc2ccc(Cl)c(Cl)c2)n1C)c1ccccc1 (stereo not shown)	4.55%
CCOC(=O)C1CCCN(S(=O)(=O)c2cc3c4c(c2)CCC(=O)N4CCC3)C1 (stereo not shown)	-8.46%
O=C(CNC(=O)c1ccccc1)Oc1ccc([N+](=O)[O-])cc1	6.91%
Cc1nc2cc(C(=O)OCC(=O)NC3CCS(=O)(=O)C3)ccc2n1-c1ccccc1 (stereo not shown)	0.511%
CSc1ccc(-c2nc(O)c3cnccn23)cc1	16.3%
CCCCc1cc(=O)oc2cc(OCC(=O)Nc3ccccn3)ccc12	4.33%
CN(CC(=O)Nc1ccccc1N1CCCC1)S(=O)(=O)c1ccc(F)cc1	-0.805%
COc1ccccc1CNC(=O)CCCNS(=O)(=O)c1cccc2nsnc12	-1.57%
O=C(Nc1cc(S(=O)(=O)N2CCOCC2)ccc1Cl)c1cc2ccccc2o1	-18.5%
O=C(O)c1cc(O)c2c(c1)[C@@H]([C@H]1c3cc(C(=O)O)cc(O)c3C(=O)c3c(O[C@@H]4O[C@H](CO)[C@@H](O)[C@H](O)[C@H]4O)cccc31)c1cccc(OC3O[C@H](CO)[C@@H](O)[C@H](O)[C@H]3O)c1C2=O (stereo partly shown)	2.71%
Cc1cccc(N(C)C(=O)CN2C(=O)COc3ccc(S(=O)(=O)N4CCCCCC4)cc32)c1	-12.7%
Cc1ccc(-c2c(C)n([O-])c3c([n+]2=O)CCC3)cc1	-8.72%
CCCCn1c(=O)c(C=Nc2cccnc2Cl)c(O)n(CCCCl)c1=O	-15.9%
Cc1nc2c3ccccc3nc(NNC(=O)CCC(=O)N3CCCC(C)C3)n2n1 (stereo not shown)	5.49%
CCCn1nnc(NC(=O)c2ccc(-c3cccc(Cl)c3)o2)n1	-55.3%
CCCNC(=O)COC(=O)c1c2c(nc3ccccc13)CCC2	-11.5%
CC1CN(C(=O)c2c(Br)cnn2C)CC(C)O1 (stereo not shown)	0.856%
CCN(CC)S(=O)(=O)c1cccc(C(=O)N[C@H](C(=O)NNC(=O)c2ccccc2)C(C)C)c1	5.65%
O=C(NCCc1cccs1)C1CC(c2c(Cl)cccc2Cl)=NO1 (stereo not shown)	-19.8%
COc1ccccc1Nc1nc(N)nc(-c2oc3ccccc3c2C)n1	-5.69%
CCOc1ccccc1NC1=C(Cl)C(=O)N(Cc2ccccc2)C1=O	-6.59%
Cc1ccc(C)c(-n2c(-c3csc(C)c3)n[nH]c2=S)c1	17.4%

Structure (SMILES)	hERG current change (%, negative = inhibition) at 10uM
Cn1c(C(=O)O)ccc1S(=O)(=O)N1CCCCCC1	14.3%
CCOC(=O)c1cc(NC(=O)c2ccc(Cl)cc2)c(=O)oc1-c1ccccc1	-2.34%
O=C1CC(C(=O)O)S/C(=N\N=C\c2ccc(Br)cc2)N1 (stereo not shown)	-9.54%
Cc1ccc(NC(=O)CCN2CCc3ccccc3C2)cc1.Cl	-60.8%
Cn1cccc1C(=O)OCC(=O)Nc1cccc(S(=O)(=O)N2CCOCC2)c1	-14.7%
CCC(=O)Nc1c(C)nn(C(=O)CC)c1C	-6%
N#Cc1c(N)n(CCNC(=O)c2cccs2)c2nc3ccccc3nc12	10.4%
CCCCC(=O)Nc1cc(C)c2c(=O)oc3ccccc3c2n1	4.39%
C/C(=N/N=C1/NC(=O)CC(C(=O)Nc2ccccc2)S1)c1cccs1 (stereo not shown)	3.32%
COc1cc(C(=O)O)ccc1OCC(=O)N1CCOCC1	0.586%
Cc1ccc(NC2CCCN(C(=O)CSc3ccccn3)C2)cc1C (stereo not shown)	-0.578%
CCC(C)N(CCNC(=O)CC1Oc2ccc(C)cc2NC1=O)C1CCCCC1 (stereo not shown)	-71.5%
N#C/C(=N\Nc1ccc(Cl)c(Cl)c1)C(=O)C1CC1	18.5%
CC(=O)c1cc2ccc(O)cc2oc1=O	10.7%
COc1ccc(C(=O)NCc2c(C)nn(Cc3ccccc3)c2C)cc1S(=O)(=O)N1CCOCC1	-17.8%
Cc1nnc(SCC(=O)NCC(=O)Nc2ccc(F)c(F)c2F)n1Cc1ccccc1	16.2%
CCOc1ccccc1NC(=O)C1CCN(c2nc(-c3ccc(OC)cc3)no2)CC1	14.3%
Cc1cc2cc(CN(CC3CCCO3)C(=O)c3cnccn3)c(=O)[nH]c2cc1C (stereo not shown)	-6.24%
Cn1nc(-c2ccccc2)c(CO)c1Oc1ccc(F)cc1	-21.4%
COc1ccc(S(=O)(=O)N2CCOCC2)c(Cl)c1Cl	-18.3%
CCc1ccc(C(C)NC(=O)C2CCCO2)cc1 (stereo not shown)	2%
